Data reported in patent US20250257143A1 (FORTE SUBSIDIARY, published 2025).

T1: huCD122-HIS (ARCO Bio | Cat No. CD2-H5221) (human, UniProt P14784 27-239)
T1 construct: Bought analyte of the BLI assay; also called human CD122; not shown: His tag
T1 sequence (looked up): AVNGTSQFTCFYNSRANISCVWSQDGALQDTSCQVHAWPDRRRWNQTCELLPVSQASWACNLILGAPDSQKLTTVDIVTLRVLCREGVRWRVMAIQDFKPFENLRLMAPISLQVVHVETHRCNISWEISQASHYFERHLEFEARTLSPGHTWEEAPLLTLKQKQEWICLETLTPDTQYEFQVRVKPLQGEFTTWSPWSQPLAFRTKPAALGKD


Legend:
[1] = biological target: T1, huCD122-HIS (ARCO Bio | Cat No. …); assay: BLI Octet, antibody captured on AHC sensor, huCD122-His analyte, 1:1 fit
Description: (§1) Based on Bio-Layer Interferometry (BLI), the Octet® BLI system is a fluidics-free instrument platform that enables real-time, label-free analysis for the determination of kinetics, affinity and antibody/protein quantitation. Binding experiments were performed on Octet HTX at 25° C. The analyte used was huCD122-HIS (ARCO Bio | Cat No. CD2-H5221) at a molecular weight of 25.4 kDa. The antibodies were loaded onto Anti-human Fc capture (AHC) sensors. The loaded sensors were dipped into serial dilutions of huCD122-His (Starting at 20 nM, 1:3 dilution, 4 points). Reference sample well (buffer) was used for data analysis. Kinetic constants were calculated using a monovalent (1:1) binding model. The assay buffer used was PBS with 0.1% BSA, […], pH 7.2. The regeneration buffer used was 10 mM Glycine buffer (pH 1.7). The four concentrations of huCD122-His used to determine anti-CD122 antibody binding and dissociation properties were 0.0 nM, 2.2 nM, 6.7 nM, and 20 nM. Sensorgram plots to display antibody binding characteristics were generated. The mouse parental chimera configurations in both IgG1 and IgG4 backbones (M5 IgG1 parental and M5 IgG4 parental) were tested as well as each combination of the humanized 3 HC and 3 LC variants in either an IgG1 or an IgG4 backbone.

[2] = biological target: T1, huCD122-HIS (ARCO Bio | Cat No. …); assay: BLI Octet, antibody captured on AHC sensor, huCD122-His analyte, 1:1 fit; second batch
Description: as §1

[3] = biological target: T1, huCD122-HIS (ARCO Bio | Cat No. …); assay: BLI Octet, antibody captured on AHC sensor (loading 25 ug/mL), huCD122-His analyte, 1:1 fit; second batch
Description: as §1

Kd [1] [nM] | Response [1] | koff [1] [s⁻¹] | kon [1] [M⁻¹ s⁻¹] | Kd [2] [nM] | Response [2] | koff [2] [s⁻¹] | kon [2] [M⁻¹ s⁻¹] | Kd [3] [nM] | koff [3] [s⁻¹] | kon [3] [M⁻¹ s⁻¹] | Binder
0.919 | 0.278 | 0.000518 | 564000 | 1.41 | 0.36 | 0.000607 | 431000 |  |  |  | G10 (antibody, human IgG1, kappa, Humanized, human IgG1 (G1M17), kappa) heavy: QVQLVQSGAEVKKPGASVKVSCKASGYTFTSHWITWVRQAPGQRLEWMGDIYPGSGNTNYNEKFQGRVTITVDTSASTAYMELSSLRSEDTAVYYCARERGGFDYWGQGTLVTVSS[here human IgG1 constant region without letters] light: DIQMTQSPSSLSASVGDRVTITCRASQDISNFLNWYQQKPGKAPKLLIYYTSGLHSGVPSRFSGSGSGTDFTLTISSLQPEDFATYYCQQDNNHPYTFGQGTKLEIKRTVAAPSVFIFPPSDEQLKSGTASVVCLLNNFYPREAKVQWKVDNALQSGNSQESVTEQDSKDSTYSLSSTLTLSKADYEKHKVYACEVTHQGLSSPVTKSFNRGEC
0.973 | 0.387 | 0.000396 | 407000 |  |  |  |  | 0.995 | 0.000645 | 648000 | G13 (antibody, human IgG4 S228P, kappa, Humanized, human IgG4 (S228P), kappa) heavy: QVQLVQSGAEVKKPGASVKVSCKASGYTFTSHWISWVRQAPGQGLEWMGDIYPGSGNTNYNEKLQGRVTMTVDTSTSTAYMELRSLRSDDTAVYYCARERGGFDYWGQGTLVTVSSASTKGPSVFPLAPCSRSTSESTAALGCLVKDYFPEPVTVSWNSGALTSGVHTFPAVLQSSGLYSLSSVVTVPSSSLGTKTYTCNVDHKPSNTKVDKRV[here human IgG4 Fc with S228P (EU numbers) without letters] light: DIQMTQSPSSLSASVGDRVTITCQASQDISNFLNWYQQKPGKTLKLLIYYTSGLHTGVPSRFSGSGSGTDFTFTISSLQPEDIATYYCQQDNNHPYTFGQGTKLEIKRTVAAPSVFIFPPSDEQLKSGTASVVCLLNNFYPREAKVQWKVDNALQSGNSQESVTEQDSKDSTYSLSSTLTLSKADYEKHKVYACEVTHQGLSSPVTKSFNRGEC
